# Results taken from the supplement of paper PMC8728848.
# The list shows a part of the results.
# Legend:
# Test in all cases: glycan array binding signal (z-score within array); higher = stronger binding
# Details in all cases: glycan notation: IUPAC condensed, linker removed
# [1] = biological target: GlcNAc(b1-2)[GlcNAc(b1-6)]Man(a1-6)[GlcNAc(b1-2)Man(a1-3)]Man(b1-4)GlcNAc(b1-4)GlcNAc
# How it was run: (§1)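 Arrays were curated from the Consortium for Functional Glycomics database, 3228 in total, and kept only where the protein sequence was available. Binding is expressed as a within-array Z-score. This score was averaged across arrays of the same protein sequence at different concentrations or buffers and across linkers, and negative values can be read as non-binding.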
# [2] = biological target: GlcNAc(b1-2)[GlcNAc(b1-6)]Man(a1-6)[GlcNAc(b1-2)Man(a1-3)][GlcNAc(b1-4)]Man(b1-4)GlcNAc(b1-4)GlcNAc
# How it was run: as §1
# GlcNAc(b1-3)Gal = biological target: GlcNAc(b1-3)Gal
# How it was run: as §1
# [3] = biological target: GlcNAc(b1-3)Gal(b1-3)GalNAc
# How it was run: as §1
# GlcNAc(b1-3)Gal(b1-4)Glc = biological target: GlcNAc(b1-3)Gal(b1-4)Glc
# How it was run: as §1
# [4] = biological target: GlcNAc(b1-3)Gal(b1-4)GlcNAc
# How it was run: as §1
# [5] = biological target: GlcNAc(b1-3)Gal(b1-4)GlcNAc(b1-3)Gal(b1-4)GlcNAc
# How it was run: as §1
# GlcNAc(b1-3)GalNAc = biological target: GlcNAc(b1-3)GalNAc
# How it was run: as §1
# GlcNAc(b1-3)Man = biological target: GlcNAc(b1-3)Man
# How it was run: as §1
# [6] = biological target: GlcNAc(b1-3)[GlcNAc(b1-4)][GlcNAc(b1-6)]GlcNAc
# How it was run: as §1
# [7] = biological target: GlcNAc(b1-3)[GlcNAc(b1-6)]Gal(b1-4)GlcNAc
# How it was run: as §1
# [8] = biological target: GlcNAc(b1-3)[GlcNAc(b1-6)]GalNAc
# How it was run: as §1
# [9] = biological target: GlcNAc(b1-4)Gal(b1-4)GlcNAc
# How it was run: as §1
# GlcNAc(b1-4)GlcNAc = biological target: GlcNAc(b1-4)GlcNAc
# How it was run: as §1
# [10] = biological target: GlcNAc(b1-4)GlcNAc(b1-4)GlcNAc
# How it was run: as §1
# [11] = biological target: GlcNAc(b1-4)GlcNAc(b1-4)GlcNAc(b1-4)GlcNAc(b1-4)GlcNAc
# How it was run: as §1
# [12] = biological target: GlcNAc(b1-4)GlcNAc(b1-4)GlcNAc(b1-4)GlcNAc(b1-4)GlcNAc(b1-4)GlcNAc
# How it was run: as §1
# [13] = biological target: GlcNAc(b1-4)[GlcNAc(b1-6)]GalNAc
# How it was run: as §1
# [14] = biological target: GlcNAc(b1-6)Gal(b1-4)GlcNAc
# How it was run: as §1
# GlcNAc(b1-6)GalNAc = biological target: GlcNAc(b1-6)GalNAc
# How it was run: as §1
# GlcNAc3Prop(b1-4)GlcNAc = biological target: GlcNAc3Prop(b1-4)GlcNAc
# How it was run: as §1
# [15] = biological target: GlcNAc6S(b1-3)Gal(b1-4)GlcNAc
# How it was run: as §1
# Kdn(a2-3)Gal(b1-3)GalNAc = biological target: Kdn(a2-3)Gal(b1-3)GalNAc
# How it was run: as §1
# Kdn(a2-3)Gal(b1-3)GlcNAc = biological target: Kdn(a2-3)Gal(b1-3)GlcNAc
# How it was run: as §1
# Kdn(a2-3)Gal(b1-4)Glc = biological target: Kdn(a2-3)Gal(b1-4)Glc
# How it was run: as §1
# Kdn(a2-3)Gal(b1-4)GlcNAc = biological target: Kdn(a2-3)Gal(b1-4)GlcNAc
# How it was run: as §1
# [16] = biological target: Kdn(a2-3)Gal(b1-4)[Fuc(a1-3)]GlcNAc
# How it was run: as §1
# Kdn(a2-6)Gal(b1-4)GlcNAc = biological target: Kdn(a2-6)Gal(b1-4)GlcNAc
# How it was run: as §1
# [17] = biological target: Man(a1-2)Man(a1-2)Man(a1-3)Man
# How it was run: as §1
# [18] = biological target: Man(a1-2)Man(a1-2)Man(a1-6)[Man(a1-3)]Man
# How it was run: as §1
# Man(a1-2)Man(a1-3)Man = biological target: Man(a1-2)Man(a1-3)Man
# How it was run: as §1
# [19] = biological target: Man(a1-2)Man(a1-3)[Man(a1-2)Man(a1-6)]Man
# How it was run: as §1
# [20] = biological target: Man(a1-2)Man(a1-3)[Man(a1-2)Man(a1-6)]Man(a1-6)[Man(a1-2)Man(a1-2)Man(a1-3)]Man
# How it was run: as §1
# [21] = biological target: Man(a1-2)Man(a1-3)[Man(a1-2)Man(a1-6)]Man(a1-6)[Man(a1-2)Man(a1-2)Man(a1-3)]Man(b1-4)GlcNAc(b1-4)GlcNAc
# How it was run: as §1
# [22] = biological target: Man(a1-2)Man(a1-3)[Man(a1-6)]Man(a1-6)[Man(a1-2)Man(a1-3)]Man(b1-4)GlcNAc(b1-4)GlcNAc
# How it was run: as §1
# [23] = biological target: Man(a1-2)Man(a1-6)[Man(a1-3)]Man(a1-6)[Man(a1-2)Man(a1-2)Man(a1-3)]Man
# How it was run: as §1
# [24] = biological target: Man(a1-2)Man(a1-6)[Man(a1-3)]Man(a1-6)[Man(a1-2)Man(a1-2)Man(a1-3)]Man(b1-4)GlcNAc(b1-4)GlcNAc
# How it was run: as §1
binder,measurement,setting,value
"PILRa (Homo sapiens), Q9UKJ1 (protein) MGRPLLLPLLPLLLPPAFLQPSGSTGSGPSYLYGVTQPKHLSASMGGSVEIPFSFYYPWELATAPDVRISWRRGHFHRQSFYSTRPPSIHKDYVNRLFLNWTEGQKSGFLRISNLQKQDQSVYFCRVELDTRSSGRQQWQSIEGTKLSITQAVTTTTQRPSSMTTTWRLSSTTTTTGLRVTQGKRRSDSWHISLETAVGVAVAVTVLGIMILGLICLLRWRRRKGQQRTKATTPAREPFQNTEEPYENIRNEGQNTDPKLNPKDDGIVYASLALSSSTSPRAPPSHRPLKSPQNETLYSVLKA",glycan array binding signal (z-score),[1],-0.167
same,glycan array binding signal (z-score),[2],-0.193
same,glycan array binding signal (z-score),GlcNAc(b1-3)Gal,-0.28
same,glycan array binding signal (z-score),[3],0.384
same,glycan array binding signal (z-score),GlcNAc(b1-3)Gal(b1-4)Glc,-0.077
same,glycan array binding signal (z-score),[4],-0.326
same,glycan array binding signal (z-score),[5],-0.259
same,glycan array binding signal (z-score),GlcNAc(b1-3)GalNAc,-0.116
same,glycan array binding signal (z-score),GlcNAc(b1-3)Man,-0.253
same,glycan array binding signal (z-score),[6],-0.23
same,glycan array binding signal (z-score),[7],-0.307
same,glycan array binding signal (z-score),[8],-0.261
same,glycan array binding signal (z-score),[9],-0.237
same,glycan array binding signal (z-score),GlcNAc(b1-4)GlcNAc,-0.15
same,glycan array binding signal (z-score),[10],-0.136
same,glycan array binding signal (z-score),[11],-0.089
same,glycan array binding signal (z-score),[12],-0.305
same,glycan array binding signal (z-score),[13],-0.213
same,glycan array binding signal (z-score),[14],-0.197
same,glycan array binding signal (z-score),GlcNAc(b1-6)GalNAc,-0.232
same,glycan array binding signal (z-score),GlcNAc3Prop(b1-4)GlcNAc,-0.294
same,glycan array binding signal (z-score),[15],-0.138
same,glycan array binding signal (z-score),Kdn(a2-3)Gal(b1-3)GalNAc,-0.121
same,glycan array binding signal (z-score),Kdn(a2-3)Gal(b1-3)GlcNAc,0.431
same,glycan array binding signal (z-score),Kdn(a2-3)Gal(b1-4)Glc,-0.121
same,glycan array binding signal (z-score),Kdn(a2-3)Gal(b1-4)GlcNAc,-0.433
same,glycan array binding signal (z-score),[16],0.561
same,glycan array binding signal (z-score),Kdn(a2-6)Gal(b1-4)GlcNAc,-0.3
same,glycan array binding signal (z-score),[17],-0.07
same,glycan array binding signal (z-score),[18],-0.343
same,glycan array binding signal (z-score),Man(a1-2)Man(a1-3)Man,-0.144
same,glycan array binding signal (z-score),[19],-0.276
same,glycan array binding signal (z-score),[20],-0.301
same,glycan array binding signal (z-score),[21],-0.324
same,glycan array binding signal (z-score),[22],-0.334
same,glycan array binding signal (z-score),[23],-0.337
same,glycan array binding signal (z-score),[24],-0.313
